# How the values were obtained:
# LdCYP5122A1 [1] = target: T1, LdCYP5122A1 (Leishmania donovani, UniProt A0A3S7X0B6)
# T1 sequence (A0A3S7X0B6 61-592): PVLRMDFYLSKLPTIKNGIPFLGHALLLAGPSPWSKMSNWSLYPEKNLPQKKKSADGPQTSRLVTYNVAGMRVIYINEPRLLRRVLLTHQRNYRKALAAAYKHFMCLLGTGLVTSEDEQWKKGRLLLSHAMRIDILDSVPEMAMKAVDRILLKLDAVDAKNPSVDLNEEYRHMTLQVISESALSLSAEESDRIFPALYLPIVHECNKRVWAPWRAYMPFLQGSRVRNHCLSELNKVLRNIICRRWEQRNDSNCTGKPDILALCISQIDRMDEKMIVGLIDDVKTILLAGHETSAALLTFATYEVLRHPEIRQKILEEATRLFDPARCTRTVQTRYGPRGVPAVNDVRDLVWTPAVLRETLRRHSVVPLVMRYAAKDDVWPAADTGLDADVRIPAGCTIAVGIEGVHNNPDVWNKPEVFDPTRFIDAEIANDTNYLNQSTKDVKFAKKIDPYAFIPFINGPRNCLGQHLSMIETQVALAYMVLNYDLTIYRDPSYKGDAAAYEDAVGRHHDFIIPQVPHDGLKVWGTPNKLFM
# [2] = tested on: L. donovani LV82 promastigotes; assay: microbe, parasite or virus in culture; conditions: Leishmania donovani, 72 h, read-out: EC50 (L. donovani)
# LdCYP5122A1 [3] = target: T1, LdCYP5122A1; assay: biochemical
# LdCYP51 [4] = target: T2, LdCYP51 (Leishmania donovani, UniProt A0A3S7WRS7); assay: biochemical
# T2 sequence (A0A3S7WRS7 32-480): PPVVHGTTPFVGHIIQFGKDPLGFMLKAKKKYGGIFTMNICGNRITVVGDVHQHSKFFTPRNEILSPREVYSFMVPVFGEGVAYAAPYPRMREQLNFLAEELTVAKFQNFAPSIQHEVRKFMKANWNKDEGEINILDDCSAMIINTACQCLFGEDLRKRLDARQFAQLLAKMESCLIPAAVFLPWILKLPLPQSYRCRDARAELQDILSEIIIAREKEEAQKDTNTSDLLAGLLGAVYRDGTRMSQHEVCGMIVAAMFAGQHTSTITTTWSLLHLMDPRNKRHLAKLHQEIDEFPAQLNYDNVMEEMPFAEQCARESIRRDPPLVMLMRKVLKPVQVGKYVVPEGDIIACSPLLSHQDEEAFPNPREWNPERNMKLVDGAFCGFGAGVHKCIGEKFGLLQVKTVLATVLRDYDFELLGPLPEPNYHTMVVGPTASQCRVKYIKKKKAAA
# LdCYP51 [5] = target: T2, LdCYP51
Compound,SI (selectivity index) = IC50 against LdCYP5122A1/IC50 against LdCYP51 (LdCYP5122A1 [1]),EC50 [2] [µM],IC50 (LdCYP5122A1 [3]) [µM],IC50 (LdCYP51 [4]) [µM],Selectivity for CYP51 over CYP5122A1 (LdCYP51 [5]) [fold]
Clc1ccc(COC(Cn2ccnc2)c2ccc(Cl)cc2Cl)c(Cl)c1 (stereo not drawn) [Miconazole],19,7.6 ± 0.7,–,–,–
Clc1ccc(CO/N=C(\Cn2ccnc2)c2ccc(Cl)cc2Cl)c(Cl)c1 [Oxiconazole],20,3.9 ± 0.4,0.62 ± 0.02,0.032 ± 0.002,–
Clc1ccccc1C(c1ccccc1)(c1ccccc1)n1ccnc1 [Clotrimazole],3.8,5 ± 0.1,–,–,3.8

# More lines, main results first:
SI (selectivity index) = IC50 against LdCYP5122A1/IC50 against LdCYP51 (LdCYP5122A1 [1]),EC50 [2] [µM],IC50 (LdCYP5122A1 [3]) [µM],IC50 (LdCYP51 [4]) [µM],Compound,Selectivity for CYP51 over CYP5122A1 (LdCYP51 [5]) [fold]
5.9,7.4 ± 0.6,0.38 ± 0.06,0.064 ± 0.003,Clc1ccc(CSC(Cn2ccnc2)c2ccc(Cl)cc2Cl)cc1 (stereo not drawn) [Sulconazole],–
10,9.4 ± 0.3,–,–,Clc1ccc(COC(Cn2ccnc2)c2ccc(Cl)cc2Cl)cc1 (stereo not drawn) [Econazole],–

# Reference: publication PMC11528044 (Nature Communications, 2024)
